# Experimental data: PubChem BioAssay AID651820 (National Center for Advancing Translational Sciences (NCATS), 2012)
# The whole screen tested about 340,000 compounds, of which about 12,000 (3.5%) were called active. The shares of active, inactive and inconclusive entries below differ from those in the screen. The call rests on the fitted dose curve; in most records, active means well fitted inhibition curve with a large enough effect; inconclusive means small, poorly fitted or top-dose-only effect, or another doubt; inactive means no such curve, though single readings can be large or run the other way. Potencies of inconclusive entries are left out as doubtful fits.
# Assay: qHTS Assay for Inhibitors of Hepatitis C Virus (HCV)
# Settings: Huh7.5.1 HCVcc-Cre (HCVcc is cell-culture hepatitis C virus) infection, luciferase reporter, 44 h; activity change, negative = inhibition: at 41.8 µM (top of the series) unless noted
# In short: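 Infectious HCVcc-Cre (~0.5 moi) was added to cells just after compound, with cells seeded 4 h earlier at 1,000 per well. Luciferase activity after 44 h culture reported infection; substrate was incubated 15 min at room temperature before reading.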
# On the % scale 0 is the no-effect control and ±100 the full control effect; potency means the concentration at half of the fitted maximal effect; tags describe the fitted curve by direction and shape.
SMILES,"activity change, negative = inhibition",Potency
O=[N+]([O-])c1ccc(OCc2n[nH]c(=S)n2-c2ccccc2)cc1,inactive: -18.8%,
CC1=C(C(=O)OCCOc2ccccc2)C(c2ccsc2)NC(=O)N1C (stereo not given),,"inconclusive [inhibitor, single point]"
CCOC(=O)c1ccccc1NC(=O)Cc1ccc(S(=O)(=O)N2CCCC2)s1,,"inconclusive [inhibitor, single point]"
O=C(Cc1ccc(NC(=O)C2CCCN(C(=O)C3CCCC3)C2)cc1)Nc1cccc(C(=O)N2CCCCC2)c1 (stereo not given),,"inconclusive [inhibitor, partial curve]"
COc1ccc(-n2c(=O)c3ccccc3n(Cc3cccc(C)c3)c2=O)cc1OC,inactive: 7.76%,
O=S(=O)(/C=C/c1ccccc1)N1CCN(Cc2ccc3c(c2)OCO3)CC1,,"inconclusive [inhibitor, single point]"
COc1ccc(C(=O)Nc2ccc(NC(=O)c3ccccn3)cn2)cc1,inactive: -19.8%,
Clc1ccccc1Cc1noc(CN2CCSCC2)n1,inactive: 13.9%,
Cc1cccc(N2CCN(S(=O)(=O)c3cc(-c4cc(C)no4)ccc3C)CC2C)c1 (stereo not given),,active: 3.98 µM
O=C(Nc1nnc(S(=O)(=O)N2CCOCC2)s1)c1ccccc1F,,"inconclusive [inhibitor, single point]"
Nc1ccc(-c2nc3c(Cl)c(N)ccc3[nH]2)cc1,inactive: 1.35%,
CCOC(=O)c1ccc(NC(=O)c2ccccc2[N+](=O)[O-])cc1,,"inconclusive [inhibitor, full curve, poor fit]"
COc1ccc(C(=O)N2CCN(c3ccc(C(C)=O)cc3)CC2)cc1S(=O)(=O)N1CCCC1,inactive: -19.7%,
Cc1cccc(N2CCN(C(=O)C(Cc3ccccc3)NC(N)=O)CC2)c1C (stereo not given),inactive: -13.9%,
O=C(CN(CCc1ccccc1)C(=O)CNS(=O)(=O)c1ccccc1)NCc1ccco1,inactive: 9.72%,
Nc1c2c(nc3ccccc13)N(c1ccccc1)CC2,,"inconclusive [inhibitor, single point]"
CCCCCCCN1C(Nc2ccccc2)=NC[C@@H]1C,,"inconclusive [inhibitor, single point]"
CCOc1ccccc1NC(=S)N1CCN(c2nc(-c3ccc(F)cc3)cs2)CC1,,"inconclusive [inhibitor, partial curve]"
COc1cc(/C=C/C(=O)OCC(=O)N2c3ccccc3CC2C)cc(OC)c1OC (stereo not given),,"inconclusive [inhibitor, partial curve]"
Cc1cc(S(=O)(=O)N2CCN(c3c(C)cccc3C)CC2)ccc1F,,"inconclusive [inhibitor, single point]"
O=C(NCC1CCCN(C(=O)NCc2ccccc2)C1)c1ccc2c(c1)OCO2 (stereo not given),inactive: 10.4%,
Cc1cc(S(=O)(=O)N2CC(=O)N(CCc3ccccc3)C(=O)C2)ccc1F,inactive: 6.29%,
CCN(CC)S(=O)(=O)c1ccc(OC)c(NC(=O)CC2CCCC2)c1,inactive: 9.05%,

SMILES,"activity change, negative = inhibition",Potency
CCOc1ccc(S(=O)(=O)N2CCCC(C(=O)NCc3ccncc3)C2)cc1C (stereo not given),,"inconclusive [inhibitor, partial curve]"
C=CCN1C(c2cccc(C(F)(F)F)c2)=CS/C1=C(/C#N)c1nnc(N2CCOCC2)n1-c1ccccc1,,"inconclusive [inhibitor, single point]"
Cc1ccc(S(=O)(=O)Oc2ccc(/C=C(/NC(=O)c3ccccc3)C(=O)Nc3ccccc3)cc2)cc1,,"inconclusive [inhibitor, full curve]"
CCOC(=O)C1=C(CNC(C)(C)CC(C)(C)C)NC(=O)NC1c1cccc([N+](=O)[O-])c1 (stereo not given),,"inconclusive [inhibitor, single point]"
Cc1noc(/C=C/c2cccs2)c1S(=O)(=O)N1CCC(C(=O)NCCCN2CCCC(C)C2)CC1 (stereo not given),,"inconclusive [inhibitor, partial curve]"
Cc1nc2n(c(=O)c1CCN1CCC(c3noc4cc(F)ccc34)CC1)CCCC2,,"inconclusive [inhibitor, full curve]"
CCOc1cc(CNCCc2ccc(S(N)(=O)=O)cc2)cc(Cl)c1OCc1ccccc1,,active: 1.58 µM
Cc1ccc(N2CCN(S(=O)(=O)c3ccc(C)cc3)CC2)cc1,inactive: 22.5%,
Cc1ccc(C(=O)Nc2ccc3c(c2)C(=O)N(CC2CCCO2)C3=O)cc1 (stereo not given),,"inconclusive [inhibitor, single point]"
Cc1ccc(C(=O)NCCNc2ncc(C(F)(F)F)cc2Cl)cc1[N+](=O)[O-],inactive: -15.7%,
Cc1ccc(-c2nc(CN3CCCCC3)cc(CN3CCCCC3)c2O)cc1,,"inconclusive [inhibitor, single point]"
OCC1OC(n2cnc3c(/C=C(\O)c4ccccc4)ncnc32)C(O)C1O (stereo not given),,"inconclusive [inhibitor, partial curve]"
Cc1ccc(O)c(CNc2cccc(C)n2)c1,inactive: 0.644%,
COc1ccc(C)cc1NC(=O)CSc1nnc(COc2ccccc2)n1Cc1ccco1,inactive: -27.5%,
O=C(c1cccc(Br)c1)c1coc2ccc(O)cc12,,"inconclusive [inhibitor, single point]"
CN1CCN(C(=O)c2cc3sc4ccccc4c3s2)CC1,inactive: -2.38%,
CCOC(=O)c1c(NC(=O)c2c(Br)cnn2CC)sc(C)c1C,,"inconclusive [inhibitor, full curve, poor fit]"
CCOC(=O)c1cc(NC(=O)c2cccnc2)ccc1N1CCOCC1,,"inconclusive [inhibitor, full curve, poor fit]"
O=C(CSc1nc2ccccc2c(=O)n1Cc1ccco1)c1ccc(F)cc1,,"inconclusive [inhibitor, partial curve]"
COCc1c(C(=O)OCC(=O)c2c(N)n(CC(C)C)c(=O)n(C)c2=O)oc2ccccc12,,"inconclusive [inhibitor, full curve]"
C[C@H]1CN=C(N(C)C)N1CCC1CCCC1,inactive: -58.3%,
Cc1ccc(Cl)cc1N1CCN(CC(=O)NC2CCCc3ccccc32)CC1 (stereo not given),,"inconclusive [inhibitor, single point]"
